# Experimental data: the supplement of paper PMC4166925
# ± gives the standard deviation of the averaged measurements. The full ranking holds about 33,000 sequences; the median of “E-score (dimensionless, -0.5 to 0.5)” is about -0.046, and the highest 2% start at about 0.36. The list shows a part of the results.
# System: T1, SpTbr T-box DNA-binding domain (GST fusion)
# T1 sequence: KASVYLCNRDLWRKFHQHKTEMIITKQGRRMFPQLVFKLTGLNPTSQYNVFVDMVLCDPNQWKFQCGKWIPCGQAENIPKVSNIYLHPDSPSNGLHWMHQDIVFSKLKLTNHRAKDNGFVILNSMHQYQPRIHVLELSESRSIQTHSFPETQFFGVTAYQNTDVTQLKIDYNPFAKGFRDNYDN
# Test: PBM E-score of 8-mer (E-score (dimensionless, -0.5 to 0.5)); Tbr is Tbrain of the sea star Patiria miniata (Pm) or the sea urchin Strongylocentrotus purpuratus (Sp); higher = stronger binding preference; most listed sequences are background and not binding sites
# Conditions: the construct has about 5 more residues each side
# Procedure, shortened: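 Expression of GST-fused Tbr T-box DNA-binding domains, each holding the full T-box plus roughly five flanking residues, was carried out in BL21 E. coli at 20 °C, with purification by glutathione affinity chromatography. Universal Agilent arrays made double-stranded by primer extension were incubated with the protein at 200 nM in PBS (pH 7.5), then scanned and quantified. All ungapped 8-mers were scored from probe intensities, and each received an enrichment E-score from the Universal PBM Analysis Suite, averaged over duplicate arrays.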
row,Sequence,PBM E-score of 8-mer
1,TTAGAGAA,-0.0826 ± 0.021
2,AGTAAACC,-0.208 ± 0.018
3,CGACGTCA,0.134 ± 0.071
4,CAATTAAA,-0.14 ± 0.11
5,GGGAGGAC,-0.319 ± 0.065
6,CGGACACA,0.106 ± 0.034
7,ACCGAAGT,0.0496 ± 0.038
8,CCCTCAGA,-0.103 ± 0.011
9,ATGCCTCC,-0.337 ± 0.019
10,AATAGTCC,-0.187 ± 0.0099
11,GAACCCCC,-0.0164 ± 0.036
12,GATCGGAC,-0.287 ± 0.013
13,ATATGCAC,-0.106 ± 0.034
14,AGGTGGTC,-0.117 ± 0.11
15,GTTACCCA,0.0592 ± 0.014
16,ATCGTTGG,0.0428 ± 0.0038
17,AAGTATCA,0.0637 ± 0.013
18,AAGATTAC,-0.136 ± 0.048
19,ACCTGAGG,0.146 ± 0.079
20,GCGATAGA,0.132 ± 0.012
21,ATATAGCA,0.0526 ± 0.037
22,ACACGCGG,0.228 ± 0.068
23,GCTACACC,0.162 ± 0.0049
24,CAAACCAA,-0.169 ± 0.062
25,ACATGTAG,-0.101 ± 0.021

row,Sequence,PBM E-score of 8-mer
1,GCCTGGAA,-0.285 ± 0.0083
2,CAACACTG,0.27 ± 0.056
3,CGCTACCC,0.0729 ± 0.073
4,AAACTGCC,0.00444 ± 0.0014
5,CGTTCAGA,-0.25 ± 0.035
6,AGTACAAA,-0.1 ± 0.079
7,CGGCGATA,0.094 ± 0.028
8,CGATAACA,0.289 ± 0.0068
9,ATGATGCA,0.0765 ± 0.045
10,ATTGCATA,-0.133 ± 0.057
11,CCGCAGAG,-0.243 ± 0.021
12,AACACGAG,0.123 ± 0.015
13,AGCTAACC,-0.324 ± 0.015
14,ACTGATAT,0.00884 ± 0.022
15,ACACAAAT,-0.0579 ± 0.0065
16,AAGCATGG,-0.143 ± 0.037
17,AGAAGCCA,-0.209 ± 0.069
18,ATGAGGAG,-0.117 ± 0.007
19,CCCGTCAC,0.344 ± 0.013
20,ATCGATGC,-0.0678 ± 0.067
21,GACGATAA,0.0937 ± 0.083
22,CCGACTAG,0.0418 ± 0.044
23,AAATTTAT,-0.146 ± 0.076
24,CTTAATGA,-0.1145 ± 0.00067
25,AGCGGCAT,-0.0852 ± 0.094

row,Sequence,PBM E-score of 8-mer
1,GTCCAGGA,-0.101 ± 0.056
2,GCATTTCC,-0.0411 ± 0.027
3,TTCACCAA,-0.0676 ± 0.055
4,AGTATCAC,0.159 ± 0.034
5,GATCTTCC,-0.162 ± 0.04
6,AATCACGG,0.0247 ± 0.037
7,GTCGTACA,-0.218 ± 0.024
8,ATGCGGAA,-0.154 ± 0.043
9,CCACACGG,0.0912 ± 0.023
10,AACACTAC,0.212 ± 0.0039
11,CGGCACAG,0.0946 ± 0.029
12,GAGATTTA,-0.0919 ± 0.039
13,AGAATCGC,0.165 ± 0.045
14,CACTATGC,0.138 ± 0.05
15,CCGCGAAA,0.32 ± 0.025
16,AGCCGTGC,-0.124 ± 0.041
17,ACTTAATA,0.0193 ± 0.093
18,CAAAGCTA,-0.0638 ± 0.037
19,ACGCCAAA,0.145 ± 0.023
20,GGATTGAC,0.11 ± 0.019
21,ATACCGGC,-0.214 ± 0.022
22,CTGTTTAA,-0.0429 ± 0.0017
23,AATCGCAA,0.231 ± 0.0071
24,CCTTCGTA,0.00169 ± 0.087
25,CTTTCGGC,0.0198 ± 0.013

row,Sequence,PBM E-score of 8-mer
1,CACATCTG,0.267 ± 0.014
2,AGTACGGG,-0.227 ± 0.012
3,TAAGCTAA,-0.295 ± 0.01
4,GTCGCCAC,0.355 ± 0.011
5,AAGTAAAC,-0.0429 ± 0.048
6,ATGGATAC,-0.334 ± 0.0065
7,AAACAAAG,0.0406 ± 0.032
8,TCTGGTAA,0.0318 ± 0.036
9,CGATAGTC,0.06612 ± 0.00037
10,CGTGGCAA,0.136 ± 0.0024
11,TCATTTAA,-0.193 ± 0.036
12,GTACCGAC,-0.085 ± 0.02
13,AGAACTCT,-0.19 ± 0.052
14,AGGCACCG,-0.0278 ± 0.12
15,GAGAGGCA,-0.156 ± 0.038
16,CCACACCA,0.314 ± 0.057
17,ATCGGCTA,-0.0768 ± 0.086
18,TATAACGA,-0.0926 ± 0.023
19,CCCACCTA,0.282 ± 0.013
20,ACGAGTGC,0.153 ± 0.03
21,ACTAAACC,-0.0636 ± 0.047
22,CCGTTGAA,-0.16 ± 0.011
23,CAGAATCC,-0.0892 ± 0.012
24,CGCCACCA,0.264 ± 0.074
25,ATGGTTAC,-0.2223 ± 0.0007

row,Sequence,PBM E-score of 8-mer
1,GCGTAACC,-0.00734 ± 0.078
2,CATATAGC,-0.162 ± 0.063
3,AAGGGCAG,-0.183 ± 0.054
4,ACAGTAAA,-0.223 ± 0.092
5,GGATTGGA,-0.187 ± 0.026
6,CGACTTAC,0.104 ± 0.056
7,GAGTGACC,-0.0175 ± 0.019
8,GGCAATTA,0.0477 ± 0.0015
9,CATACACG,-0.0952 ± 0.029
10,CTGCAGGA,-0.194 ± 0.053
11,CGAGCTCA,0.0183 ± 0.042
12,CAGGTAAG,0.0839 ± 0.015
13,AGGCGGTA,0.0362 ± 0.0049
14,GTAAGCGA,0.0852 ± 0.012
15,CCATAAAC,-0.173 ± 0.017
16,TCCGAGAA,0.08936 ± 0.00029
17,GAATGACA,0.263 ± 0.0075
18,AATAGCGT,0.0911 ± 0.081
19,GGGTGGCA,0.288 ± 0.014
20,GGTCCCAC,0.2764 ± 0.0004
21,AGACGCGC,0.13 ± 0.03
22,CGACCCGA,-0.0816 ± 0.051
23,AAGAATGT,-0.0437 ± 0.045
24,CCAGGCGG,-0.00073 ± 0.033
25,AGGTCGAA,-0.182 ± 0.024

row,Sequence,PBM E-score of 8-mer
1,ATTAAGGC,-0.102 ± 0.047
2,CACTTTAC,0.2726 ± 0.0026
3,CTAATCAA,-0.0132 ± 0.1
4,CGTCTAAC,-0.055 ± 0.02
5,AGGACGCC,-0.0398 ± 0.026
6,CAGCGAAA,-0.0118 ± 0.0072
7,ATGGGGTG,0.174 ± 0.067
8,GGTTACGA,-0.142 ± 0.062
9,GTGGCCTA,-0.0963 ± 0.11
10,CCCTTTCA,-0.189 ± 0.054
11,GCTAATAC,0.0247 ± 0.033
12,CTCTTCCA,-0.362 ± 0.015
13,ACATTATA,-0.0536 ± 0.054
14,CACGGGGA,-0.101 ± 0.035
15,ATTACAAG,-0.031 ± 0.023
16,TTGATAAA,-0.177 ± 0.11
17,ATAACGGG,0.104 ± 0.03
18,ATGAATCA,-0.13 ± 0.03
19,GACAAGTC,0.208 ± 0.024
20,CCGTATCA,-0.122 ± 0.057
21,CCCCGACA,0.142 ± 0.018
22,AATTCCGT,-0.161 ± 0.042
23,CAATTCAC,0.251 ± 0.04
24,TGAGCACA,0.0566 ± 0.087
25,ACGTACCT,-0.152 ± 0.065

row,Sequence,PBM E-score of 8-mer
1,CCTCACGC,0.322 ± 0.036
2,ACGCATGA,-0.0793 ± 0.024
3,CGGTGCAA,0.0157 ± 0.012
4,TGCCGCAA,-0.117 ± 0.059
5,CTCACCAG,0.174 ± 0.045
6,ACCAAGTC,0.0694 ± 0.028
7,TATGAGAA,-0.304 ± 0.058
8,AGGAACAT,-0.253 ± 0.019
9,CTCAGCTA,0.152 ± 0.046
10,AGAAACTA,-0.0789 ± 0.016
11,GATCAATA,0.0446 ± 0.036
12,CGTCCACG,0.0261 ± 0.03
13,CAAGTAGC,0.154 ± 0.0094
14,ATAATTCG,-0.0529 ± 0.0063
15,CGGGCTAC,-0.293 ± 0.11
16,AGCTTTTA,-0.024 ± 0.12
17,CTAACTGA,-0.0567 ± 0.055
18,ACCATGGA,-0.128 ± 0.037
19,GCGTGGAC,0.106 ± 0.064
20,CGTGTCTA,0.135 ± 0.05
21,GCGACGCA,0.0499 ± 0.064
22,TGTACTAA,-0.0604 ± 0.086
